Publication PMC4336329 (PLoS ONE, 2015)
Hit rate of the full screen: of about 310,000 compounds, about 2,200 (0.71%) showed an effect of 50% or more. The effect is printed as a negative number. The list shows a part of the results.

molecular target: human ether-à-go-go-related gene (hERG) potassium channel (human, UniProt Q12809); experiment: primary screen, population patch clamp on CHO cells stably expressing hERG
Sequence (Q12809 whole entry, looked up): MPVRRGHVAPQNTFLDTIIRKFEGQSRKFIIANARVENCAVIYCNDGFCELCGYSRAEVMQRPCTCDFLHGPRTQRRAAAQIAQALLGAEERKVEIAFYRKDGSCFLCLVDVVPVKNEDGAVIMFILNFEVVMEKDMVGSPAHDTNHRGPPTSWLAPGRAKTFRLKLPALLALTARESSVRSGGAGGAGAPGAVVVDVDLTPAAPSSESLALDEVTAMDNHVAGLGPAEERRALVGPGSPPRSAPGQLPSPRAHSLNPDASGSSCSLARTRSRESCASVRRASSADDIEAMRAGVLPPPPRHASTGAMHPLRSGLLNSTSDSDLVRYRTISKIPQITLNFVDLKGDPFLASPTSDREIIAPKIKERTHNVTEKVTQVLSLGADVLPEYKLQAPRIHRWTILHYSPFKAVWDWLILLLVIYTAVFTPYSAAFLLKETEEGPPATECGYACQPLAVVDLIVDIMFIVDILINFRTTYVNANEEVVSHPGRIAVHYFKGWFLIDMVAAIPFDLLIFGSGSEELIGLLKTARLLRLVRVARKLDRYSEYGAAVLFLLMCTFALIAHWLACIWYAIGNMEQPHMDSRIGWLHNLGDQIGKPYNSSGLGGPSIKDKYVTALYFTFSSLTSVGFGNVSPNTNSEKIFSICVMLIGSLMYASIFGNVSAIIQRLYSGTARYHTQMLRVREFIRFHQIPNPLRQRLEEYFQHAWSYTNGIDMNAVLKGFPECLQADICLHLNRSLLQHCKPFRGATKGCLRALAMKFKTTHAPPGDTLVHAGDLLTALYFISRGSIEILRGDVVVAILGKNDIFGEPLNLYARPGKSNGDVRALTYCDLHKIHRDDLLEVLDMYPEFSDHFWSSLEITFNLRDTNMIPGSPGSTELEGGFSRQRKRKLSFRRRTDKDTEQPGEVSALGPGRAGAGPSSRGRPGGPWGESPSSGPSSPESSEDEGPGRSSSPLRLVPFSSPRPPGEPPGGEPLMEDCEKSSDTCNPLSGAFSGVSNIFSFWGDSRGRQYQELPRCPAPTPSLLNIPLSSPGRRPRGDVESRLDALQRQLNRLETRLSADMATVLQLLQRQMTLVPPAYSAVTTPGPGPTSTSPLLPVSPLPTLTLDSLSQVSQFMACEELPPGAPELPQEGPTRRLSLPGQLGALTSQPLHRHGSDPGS

| Structure (SMILES) | hERG current change (%, negative = inhibition) at 1uM [%] |
| --- | --- |
| Cc1ccccc1-c1ncc(CN2CCN(C3CCCCC3)C(CCO)C2)cn1 (centres unmarked) | -6.66 |
| CCCn1nnnc1SCC(=O)Nc1sc(C)c(C)c1C#N | 8.83 |
| CCN(CC)CCNC(=O)CS(=O)Cc1nc(-c2ccc(Cl)cc2)oc1C (centres unmarked) | -5.6 |
| O=C(CCCn1c(=S)[nH]c2cc3c(cc2c1=O)OCO3)NCc1ccccc1Cl | 14 |
| S=C1CN=C(c2ccccc2Cl)c2cc(Cl)ccc2N1 | 8.44 |
| C=CCn1c(=O)n(CCOC)c(=O)c2sc3ccccc3c21 | 0.14 |
| CC(C)[C@H](NC(=O)N1c2ccccc2NC(=O)[C@@H]1C(C)C)C(=O)N[C@@H](C(=O)O)c1ccccc1 | 13 |
| CCc1ccc(-c2cc(C(F)(F)F)n3nc(C(=O)Nc4cnn(Cc5ccccc5C)c4)cc3n2)s1 | 11.3 |
| O=C(Cc1cccc(C(F)(F)F)c1)Nc1ccccc1N1CCCC1 | 1.28 |
| COC(=O)c1c(C)[nH]c(C(=O)C(C)OC(=O)C2=NNC(=O)CC2)c1C (centres unmarked) | 3.65 |
| O=C(O)[C@H]1CCCN1C(=O)c1ccccc1N1C(=O)[C@@H]2Cc3c([nH]c4ccccc34)C(c3cccc(Cl)c3)N2C1=O (some centres unmarked) | 8.94 |
| C/C(=N\NC(N)=O)c1ccccc1 | 24 |
| COc1ccc(-n2cnnc2SC(C)C(=O)Nc2cccc([N+](=O)[O-])c2)cc1 (centres unmarked) | -16 |
| Cc1cc(C)cc(N2C(=O)NC(=O)/C(=C/c3cccn3-c3ccc(Cl)cc3)C2=O)c1 | 11.8 |
| CC(C)C(=O)NNC(=O)c1ccccn1 | 12.3 |
| OCCC1CN(CC#Cc2ccccc2)CCN1Cc1ccccc1F (centres unmarked) | 11.1 |
| COc1ccc(-n2c(-c3ccco3)nc3c(cnn3-c3ccccc3C)c2=O)cc1 | 5.76 |
| CN(C)c1ccc(/C=C(\C#N)c2ccccn2)cc1 | 2.79 |
| Nc1ccc(C(=O)N2CCCC2)cc1CS(=O)(=O)c1ccc(Cl)cc1 | 7.63 |
| Cc1ccc2c(c1)/C(=N/N1C(=O)c3ccccc3C1=O)C(=O)N2 | 10.3 |
| CCc1n(CC(O)COCc2ccccc2)c2ccccc2[n+]1C.[I-] (centres unmarked) | 6.34 |
| CCCCn1c(N)c(N(CCOC)C(=O)COC(=O)COc2ccc(CC)cc2)c(=O)[nH]c1=O | 3.58 |
| CCN1CCN(CC(O)COCc2cc(OC)c(OC)c(OC)c2)CC1.Cl (centres unmarked) | 15.6 |

| Structure (SMILES) | hERG current change (%, negative = inhibition) at 1uM [%] |
| --- | --- |
| CCN1CCN(Cc2nc3c(c(=O)n(C)c(=O)n3C)n2Cc2cccc3ccccc23)CC1 | -8.57 |
| CC(Sc1nc(-c2ccccc2)cc(C(F)(F)F)n1)C(=O)N1CCC(C(N)=O)CC1 (centres unmarked) | -1.28 |
| CCOCCCNC(=O)C(NC(=O)c1ccccc1O)c1ccc(Cl)cc1 (centres unmarked) | 14.7 |
| Cc1ccc(-c2nnc(SCC(=O)O)n2N)cc1 | 4.19 |
| Cc1ccc(SCC(=O)Nc2ccc(S(N)(=O)=O)cc2)cc1 | 10.5 |
| CCCCn1nnc(NC(=O)c2ccco2)n1 | 12.1 |
| CC(C)NC(=O)NC(=O)CSc1nncs1 | 13.5 |
| CN(Cc1c(C(=O)N/N=C/c2cccs2)nnn1-c1nonc1N)c1ccccc1 | 7.76 |
| CC(=O)N1CCCc2ccc(NS(=O)(=O)c3ccc(C)cc3)cc21 | 5.39 |
| O=C1C2CCCN2C(=O)N1CCCCN1CCN(c2cccc(C(F)(F)F)c2)CC1 (centres unmarked) | -9.12 |
| CCOCCCNCc1ccc(OC)cc1.O=C(O)C(=O)O | 12.4 |
| O=C(Cn1nnc(-c2ccc(NC(=O)c3ccccc3F)cc2)n1)NCc1ccc(F)cc1 | -2.01 |
| Cc1c(O)ccc(C(=O)CN2CCN(c3ccccc3F)CC2)c1O | 16.2 |
| O=C(CSc1ccc2nnc(-c3ccccn3)n2n1)NCc1ccco1 | -28.9 |
| CC1(C)C(=O)Nc2ccccc2N1C(=O)COC(=O)CSc1ccc(Cl)cc1 | 13.6 |
| COc1cccc2c1OC1(C)CC2NC(=O)N1 (centres unmarked) | -4.29 |
| Cc1cc(C)c(OCC(=O)OCC(=O)NCC2CCCCC2)c(C)c1 | 10.2 |
| Cc1cc(F)ccc1NC(=O)c1cc(S(=O)(=O)N2CCc3ccccc32)cn1C | -5.75 |
| CCn1c(NC(=O)c2cccc(Cn3cc(Cl)cn3)c2)nc2ccccc21 | -2.58 |
| CC(C)CC(=O)Nc1cccc(C(C)O)c1 (centres unmarked) | 9.91 |
| O=C1NC(=O)c2cc(NC(=O)C3CCCCC3)ccc21 | 0.799 |
| Cn1ccnc1C(O)c1ccccc1 (centres unmarked) | 9.58 |
| Br.CCc1ccc(C(=O)CN2CCSC2=N)cc1 | -2.25 |

| Structure (SMILES) | hERG current change (%, negative = inhibition) at 1uM [%] |
| --- | --- |
| Nc1nnc(SCC(=O)c2ccc([N+](=O)[O-])cc2)s1 | 5.75 |
| Nc1ccc(C(=O)N/N=C/c2cn(Cc3ccccc3F)c3ccccc23)cc1 | 15.6 |
| NC(=S)Nc1cccc(F)c1 | 8.41 |
| Cc1nc2c(F)c(F)c(C(F)(F)F)c(F)c2[nH]1 | 4.67 |
| Cn1cnc([N+](=O)[O-])c1Nc1ccccc1O | 10.2 |
| COc1ccc(S(=O)(=O)N2CCN(C(=O)CC(C)C)CC2)cc1 | 7.86 |
| CN(C)S(=O)(=O)Nc1ccccn1 | 10 |
| CCOC(=O)c1ccc(NC(=O)CCc2nnc3ccc(N4CCN(C)CC4)nn23)cc1 | 13.7 |
| CN1/C(=C\C(=O)c2cncc(Br)c2)C(C)(C)c2ccccc21 | 1.95 |
| CNC(=O)c1sc(-c2ccc(Cl)cc2)nc1C | 4.98 |
| Cc1ccc(C(=O)NCc2ccco2)cc1S(=O)(=O)Nc1cccc(C)c1C | -3.54 |
| O=C(O)CSc1nnc(COc2cccc3cccnc23)n1-c1ccc(Cl)cc1 | 9.7 |
| CN(CC(=O)N1CCN(Cc2ccccc2)CC1)S(=O)(=O)c1ccc(F)cc1 | -7.88 |
| Cc1ccc(Cn2ccc(NC(=O)c3cc4nc(-c5ccco5)cc(C(F)(F)F)n4n3)n2)cc1 | 3.18 |
| O=C(Cc1cccs1)Nc1cccc(-c2nc3cc4ccccc4cc3[nH]2)c1 | 12.1 |
| Br.O=C(Cn1c(NCCCO)nc2ccccc21)c1cccc(Br)c1 | 4.14 |
| c1cnc(-c2nnc3n2CCCCC3)cn1 | 15.1 |
| C=CCOc1ccc(Br)cc1CNCCO.Cl | 8.78 |
| CCOc1ccc(N2C(=O)CC(N(C)Cc3ccccc3)C2=O)cc1 (centres unmarked) | 11.9 |
| COc1ccc(OCC(O)CNCc2ccco2)cc1 (centres unmarked) | 3.44 |
| Cc1cccc(C)c1Nc1nnc(SCC(=O)Nc2sccc2C#N)s1 | -0.121 |
| Cc1cc(=O)[nH]c(-n2[nH]c3c(c2=O)CCCC3)n1 | 9.61 |
| N#CCCn1c(=O)n(CCC#N)c2ccccc21 | 5.04 |

| Structure (SMILES) | hERG current change (%, negative = inhibition) at 1uM [%] |
| --- | --- |
| CC(C)Cn1c(=O)c(C(=O)NCc2ccccn2)c(O)c2ccccc21 | 13.1 |
| O=C(c1ccco1)N1CCN(Cc2cc(=O)c(OCc3ccc(F)cc3)co2)CC1 | -5.67 |
| O=C(N/N=C/C=C\c1ccccc1[N+](=O)[O-])c1cc(-c2ccccc2)nc2ccccc12 | 9.06 |
| CCn1c(=O)cc(OCC(=O)N2CCN(c3cccc(C(F)(F)F)c3)CC2)c2ccccc21 | -8.43 |
| CC(c1ccccc1)C(Cc1nc2ccccc2[nH]1)c1nc2ccccc2[nH]1 (centres unmarked) | 4.36 |
| Cc1cccc(N2CCN(C(=O)c3cccn4c(=O)c5c(C)c(C)sc5nc34)CC2)c1C | 16.7 |
| Cc1ccc(CNC(=O)COC(=O)c2ccc(S(=O)(=O)N3CCCC3)cc2)cc1 | 3.34 |
| Cc1ccc(S(=O)(=O)N=S(CC2CC2(Cl)Cl)CC2CC2(Cl)Cl)cc1 (centres unmarked) | -0.132 |
| COc1ccccc1N1CCN(C(=O)c2cc3ccccc3[nH]2)CC1 | 10.1 |
| COc1ccc(CCN(C)C(=O)CSc2ncnc3sccc23)cc1OC | 14.1 |
| C/C(=N\Nc1ccc(F)cc1F)c1ccc(F)cc1 | 6.71 |
| Cc1cc(OCC(=O)N2CCOCC2)cc2oc(=O)c3ccccc3c12 | 7.05 |
| COc1cc(CCC(=O)NNC(=O)c2ccc(C)cc2)cc(OC)c1OC | 10.9 |
| O=C(NCCc1ccccc1)C1CCC(Cn2c(=O)c3ccccc3n(Cc3cccc(Cl)c3)c2=O)CC1 (centres unmarked) | 13.5 |
| COc1cc(-c2[nH]nc3c2C(c2ccco2)C(C#N)=C(N)O3)cc(OC)c1OC (centres unmarked) | 9.78 |
| Cc1ccc(N=C2NC(=O)S/C2=C\c2ccco2)cc1 | 10.2 |
| O=S1(=O)CC2SC(=S)N(Cc3ccccc3)C2C1 (centres unmarked) | 9.7 |
| Cc1ccc(C)c(NC(=O)COC(=O)CC2c3ccccc3CCN2S(=O)(=O)c2ccc(F)cc2)c1 (centres unmarked) | 20.3 |
| O=C(CCn1c(=O)c2cccn2c2cccnc21)NCc1cccc(Cl)c1 | 6.36 |
| COc1ccc(S(=O)(=O)N2CCCC(C(=O)N3CCOCC3)C2)cc1OC (centres unmarked) | 18.6 |
